About 31,000 (8.9%) of roughly 350,000 compounds were called active. This list was built around the results that the source calls inconclusive (neither active nor inactive); the mix of calls is not that of the screen. Calls follow the shape of the dose curve; as a rule, active = well fitted inhibition curve with a large enough effect; inconclusive = small, poorly fitted or top-dose-only effect; inactive = no such curve, though single readings can be large or run the other way. Potencies of inconclusive entries are doubtful fits and often do not repeat.
Each molecule was assayed against Histone-lysine N-methyltransferase EHMT2 (Homo sapiens) (UniProt Q96KQ7) (assay: qHTS Assay for Inhibitors of Histone Lysine Methyltransferase G9a). Settings: G9a H3K9 monomethylation, AlphaScreen, 2 h; activity, negative = inhibition: at 59 µM (top of the series) unless noted.
In short: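 Readings reflect AlphaScreen signal from monomethyl-H3K9 antibody detection. HMT at 20 nM; substrate b-H3K9 500 nM; cofactor SAM 20 uM; 2 h RT reaction; compounds tested as titrations in qHTS with 15 min preincubation.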
% is scaled to controls: 0 for no effect and ±100 for the full control effect; potency is read from the fitted curve at half-maximal effect; tags tell the direction and shape of the fitted curve.
Also: nearly all actives have a fitted effect of over 75% in size.

Chain of UniProt Q96KQ7 (Q96KQ7 whole entry, looked up): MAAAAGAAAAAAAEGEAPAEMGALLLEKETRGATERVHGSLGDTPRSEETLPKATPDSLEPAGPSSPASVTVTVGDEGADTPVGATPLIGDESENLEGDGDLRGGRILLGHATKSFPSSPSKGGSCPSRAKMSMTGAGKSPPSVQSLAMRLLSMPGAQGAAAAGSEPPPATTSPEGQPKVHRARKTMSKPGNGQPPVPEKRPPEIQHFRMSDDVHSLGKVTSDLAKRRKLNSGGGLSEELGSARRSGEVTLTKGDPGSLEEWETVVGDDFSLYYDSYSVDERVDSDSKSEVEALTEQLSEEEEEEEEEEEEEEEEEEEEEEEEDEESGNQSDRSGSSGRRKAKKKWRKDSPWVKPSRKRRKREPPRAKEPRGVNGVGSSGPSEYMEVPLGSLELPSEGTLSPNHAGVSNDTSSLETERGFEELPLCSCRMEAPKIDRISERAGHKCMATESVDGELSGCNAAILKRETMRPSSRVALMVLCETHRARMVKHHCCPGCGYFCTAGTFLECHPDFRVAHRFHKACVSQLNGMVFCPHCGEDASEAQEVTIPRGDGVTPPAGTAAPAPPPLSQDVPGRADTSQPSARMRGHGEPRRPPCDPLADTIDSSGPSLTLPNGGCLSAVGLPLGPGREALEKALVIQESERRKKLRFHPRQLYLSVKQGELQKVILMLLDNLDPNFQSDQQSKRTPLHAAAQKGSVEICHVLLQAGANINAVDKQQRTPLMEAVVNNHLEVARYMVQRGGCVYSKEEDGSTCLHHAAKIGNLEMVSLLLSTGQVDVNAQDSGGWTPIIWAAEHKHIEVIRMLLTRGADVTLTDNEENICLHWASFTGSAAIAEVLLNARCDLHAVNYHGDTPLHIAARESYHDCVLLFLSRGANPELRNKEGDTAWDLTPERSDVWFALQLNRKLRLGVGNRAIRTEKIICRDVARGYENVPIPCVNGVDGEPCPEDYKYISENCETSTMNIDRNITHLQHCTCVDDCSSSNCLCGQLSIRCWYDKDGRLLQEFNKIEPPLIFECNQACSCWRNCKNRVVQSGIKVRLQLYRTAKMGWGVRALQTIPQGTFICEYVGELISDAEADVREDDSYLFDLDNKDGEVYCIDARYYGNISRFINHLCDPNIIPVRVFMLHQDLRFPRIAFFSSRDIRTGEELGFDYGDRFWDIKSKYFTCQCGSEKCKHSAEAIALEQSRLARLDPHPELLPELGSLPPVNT

| SMILES | activity, negative = inhibition | Potency |
| --- | --- | --- |
| CC(C)NC(=O)N1CCCC2(CCN(S(=O)(=O)c3ccccc3)CC2)C1 | inactive: 2.56% [at 12.7 µM] | – |
| NC(=S)n1[nH]c(-c2ccc([N+](=O)[O-])cc2)c(N=Nc2ccc(Cl)cc2)c1=O | – | active: 44.7 µM |
| Cc1ccc(-c2nc(CS(=O)(=O)CC(=O)N3CC(C)CC(C)C3)c(C)o2)cc1 (centres undefined) | – | inconclusive: 14.1 µM [inhibitor, partial curve] |
| Cc1c(CCC(=O)NCCC(=O)O)c(=O)oc2c(C)c3oc4c(c3cc12)CCCC4 | – | inactive |
| CC(C)Oc1ccc(C(=O)OCC(=O)NCCNC(=O)COC(=O)c2ccc(OC(C)C)cc2)cc1 | – | inconclusive: 89.1 µM [inhibitor, single point] |
| CC(=O)Nc1ccc(S(=O)(=O)NCCSCc2ccco2)cc1 | – | inconclusive: 63.1 µM [inhibitor, partial curve, poor fit] |
| CC1(c2ccc([N+](=O)[O-])cc2)Nc2ccccc2S1 (centres undefined) | – | active: 28.2 µM |
| O=C(NCc1ccccc1)c1ccc2nc(-c3ccco3)c(-c3ccco3)nc2c1 | – | active: 1.78 µM |
| CN(C)Cc1c(O)ccc2[nH]cnc12 | – | inconclusive: 3.16 µM [inhibitor, single point] |
| O=C(Nc1cccc(S(=O)(=O)Nc2ccccc2Cl)c1)c1ccc(N2CCCC2)c([N+](=O)[O-])c1 | – | inconclusive: 25.1 µM [inhibitor, full curve] |
| O=C(CCc1ccccc1)NNC(=O)CCc1ccccc1 | – | inactive |
| COc1ccc(C(=O)Nc2ccc(N3CCCC3)cc2)cc1Br | – | active: 39.8 µM |
| C=CCn1c(SCCC(=O)O)nnc1-c1cccs1 | – | inconclusive: 39.8 µM [inhibitor, single point] |
| COc1cccc(N(C(=O)c2ccco2)c2nc(-c3sc(NC(=O)c4ccco4)nc3C)cs2)c1 | – | inconclusive: 70.8 µM [inhibitor, single point] |
| O=C(O)c1cc(-c2ccccc2)n(-c2ccccc2)n1 | – | inconclusive: 25.1 µM [inhibitor, single point] |
| CC(C)c1ccc(NS(=O)(=O)c2ccc3[nH]cc(C(=O)N4CCCC4)c(=O)c3c2)cc1 | – | inconclusive: 14.1 µM [inhibitor, partial curve] |
| CCn1ccc2cc(S(=O)(=O)N3CCCN(C(=O)Nc4cc(Cl)ccc4C)CC3)ccc21 | – | inactive |
| CC1CCN(S(=O)(=O)c2ccc(C(=O)N3CCCCC3C(=O)O)cc2)CC1 (centres undefined) | – | inconclusive: 4.47 µM [inhibitor, partial curve, poor fit] |
| O=C(Cn1ncc2c3ccccc3n(Cc3ccccc3)c2c1=O)Nc1ccccc1C(F)(F)F | – | inactive |
| COc1ccc(OC)c(CNC(=O)CCCn2nc(C)c3c(C)n(-c4ccc(C)cc4)nc3c2=O)c1 | – | inactive |
| CCCc1cc(=O)oc2cc(C)cc(OCC(=O)Nc3ccc(CN4CCOCC4)cc3)c12 | inactive: 2.82% [at 0.0925 µM] | – |
| COc1ccc(-n2nc3cc(C)c(N)cc3n2)cc1Cl | – | active: 0.708 µM |

| SMILES | activity, negative = inhibition | Potency |
| --- | --- | --- |
| Cc1ccc(OCc2nnc(SCc3cc(=O)[nH]c4ccccc34)n2-c2ccccc2)cc1 | – | inconclusive: 22.4 µM [inhibitor, single point] |
| CCOC(=O)Nc1ccc2c(c1)Sc1ccccc1N2C(=O)CCN1CCOCC1 | – | inconclusive: 89.1 µM [inhibitor, partial curve, poor fit] |
| NC(=O)c1ccc(NC(=O)COC(=O)CCc2ccc(S(=O)(=O)N3CCCCC3)cc2)cc1 | – | inconclusive: 44.7 µM [inhibitor, partial curve, poor fit] |
| Cc1cccc(C(=O)NC(=S)Nc2ccc(S(=O)(=O)N3CCCCC3)cc2)c1 | inactive: -6.62% [at 12.7 µM] | – |
| CCOc1ccc2[nH]c(=O)c(CN(Cc3nnnn3Cc3ccccc3)CC3CCCO3)cc2c1 (centres undefined) | – | inactive |
| CC(C)C[C@H](NC(=O)OC(C)(C)C)c1nnc(SCc2ccccc2)o1 | – | inconclusive: 12.6 µM [inhibitor, partial curve] |
| O=C(/C=C/Nc1ccc(F)cc1)c1ccco1 | – | inconclusive: 3.55 µM [inhibitor, partial curve, poor fit] |
| O=C(c1ccc([N+](=O)[O-])cc1)N1CCSC1c1ccc(Br)cc1 (centres undefined) | – | inconclusive: 50.1 µM [inhibitor, partial curve] |
| CC(C)=NOc1nc(N2CCOCC2)nc(N2CCOCC2)n1 | – | inconclusive: 79.4 µM [inhibitor, partial curve, poor fit] |
| COc1cccc(CNC(=O)Cc2c(C)c3c(cc(C)c4c(C)coc43)oc2=O)c1 | – | inactive |
| CC(Oc1ccc(Br)cc1)C(=O)NCC(c1cccs1)N1CCOCC1 (centres undefined) | – | inactive |
| COc1ccc(NC(=O)CCOc2ccccc2C)cc1S(=O)(=O)N1CCCCC1 | – | inconclusive: 50.1 µM [inhibitor, partial curve] |
| CC1=NN(c2ccccc2)C(=O)C1 | – | inactive |
| Cc1nn(S(=O)(=O)c2ccccc2)c(C)c1Sc1ccc([N+](=O)[O-])cc1 | – | inconclusive: 44.7 µM [inhibitor, partial curve] |
| Cc1c(C(=O)O)nn(-c2cccc(C(F)(F)F)c2)c(=O)c1C#N | – | inconclusive: 89.1 µM [inhibitor, single point] |
| Cc1ccc(N2CCN(/N=C/C3=C(N4CCOCC4)C(=C\c4ccccc4)/CC3)CC2)cc1 | – | inactive |
| Cc1ccc(/C=N/NC(=O)Cn2nc(C)c(Br)c2C)o1 | – | inconclusive: 89.1 µM [inhibitor, single point] |
| CS(=O)(=O)N1CCN(c2ccc(NC(=S)NC(=O)c3ccc4c(c3)OCO4)cc2)CC1 | – | inconclusive: 8.91 µM [inhibitor, full curve] |
| CC(=O)c1cccc(NC(=O)c2cc(-c3ccncc3)nc3ccccc23)c1 | – | inconclusive: 3.55 µM [inhibitor, single point] |
| S=c1[nH]nc(-c2ccc(Cl)cc2)n1-c1ccc(Cl)cc1 | – | active: 8.91 µM |
| O=C(COC(=O)C1CCN(S(=O)(=O)c2cccs2)CC1)c1cc2ccccc2o1 | – | active: 8.91 µM |
| Cc1ccc(C(C)C)c(OCCn2ccnc2C)c1 | – | active: 10 µM |

From PubChem BioAssay AID504332 (National Center for Advancing Translational Sciences (NCATS), 2011)
